From PubChem BioAssay AID488969 (Vanderbilt High Throughput Screening Facility, 2010)
Whole data set: some 110,000 compounds, median “z-score” near -0.1, cut for the highest 2% near 2. The list shows a part of the results.

Target: Metabotropic glutamate receptor 8 (Rattus norvegicus) (UniProt P70579)
Assay: mGluR8 Gi/Go-coupled signaling modulation – cell-based, rat, thallium flux, HTS, primary screen (AID 488969)
Conditions: HEK293 rat mGluR8, GIRK (G protein-gated inwardly rectifying potassium channel) thallium flux, FluoZin2; at 10 µM; stronger effect = higher value; submaximal glutamate (EC20) added with thallium

Chain of UniProt P70579 (P70579 whole entry, looked up): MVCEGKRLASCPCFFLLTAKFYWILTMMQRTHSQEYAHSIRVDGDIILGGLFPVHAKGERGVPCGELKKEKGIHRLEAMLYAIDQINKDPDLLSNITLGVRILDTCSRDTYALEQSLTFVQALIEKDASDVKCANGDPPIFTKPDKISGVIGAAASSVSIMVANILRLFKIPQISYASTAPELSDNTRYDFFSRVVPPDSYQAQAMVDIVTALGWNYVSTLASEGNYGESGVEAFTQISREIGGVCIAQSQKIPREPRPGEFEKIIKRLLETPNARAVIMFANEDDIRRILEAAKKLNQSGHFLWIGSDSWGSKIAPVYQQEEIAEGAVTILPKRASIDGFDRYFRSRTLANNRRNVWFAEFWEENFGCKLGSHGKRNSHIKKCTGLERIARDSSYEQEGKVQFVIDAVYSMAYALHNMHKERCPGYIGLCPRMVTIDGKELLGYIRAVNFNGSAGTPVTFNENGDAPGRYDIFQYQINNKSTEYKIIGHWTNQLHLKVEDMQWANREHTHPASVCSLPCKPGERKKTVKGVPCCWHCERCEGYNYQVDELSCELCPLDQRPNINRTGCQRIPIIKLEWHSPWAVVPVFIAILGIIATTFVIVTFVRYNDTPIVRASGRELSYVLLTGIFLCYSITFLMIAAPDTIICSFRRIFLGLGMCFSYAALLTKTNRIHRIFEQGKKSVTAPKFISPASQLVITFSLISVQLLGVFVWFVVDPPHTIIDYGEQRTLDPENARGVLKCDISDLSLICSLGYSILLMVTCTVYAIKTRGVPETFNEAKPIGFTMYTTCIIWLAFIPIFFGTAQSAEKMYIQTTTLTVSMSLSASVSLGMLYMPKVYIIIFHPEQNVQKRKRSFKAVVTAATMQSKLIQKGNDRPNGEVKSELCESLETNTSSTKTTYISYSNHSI

SMILES	z-score
O=C(CCc1ccccc1)Nc1ccc(N2CCOCC2)c(Cl)c1	-0.292
O=C(CN(CC1CCCO1)C(=O)CCC(=O)Nc1ccccn1)NCc1ccccc1 (stereo unspecified)	-0.09
COc1ccc(C(c2c(NC(=O)c3ccccc3)sc(C)c2C)N2CCN(CCO)CC2)cc1 (stereo unspecified)	0.286
Cc1ccccc1Nc1c(N)c(=O)oc2ccccc12	-0.416
Cc1ccc(CO/N=C/C2=C(Cl)c3ccccc3CC2)cc1	0.558
CCCCN1C(=O)c2ccc(C(=O)Nc3ccc(C)c(S(=O)(=O)N(C)C)c3)cc2C1=O	0.319
O=C1c2ccccc2C(Nc2ccc(F)cc2F)N1CCN1CCOCC1 (stereo unspecified)	-0.157
CCSc1nc2nc(C)cc(C)n2n1	0.725
CN1c2ccccc2C(C)(C)C12CCCC(=O)N2 (stereo unspecified)	-0.365
Cc1cccc(OCCOc2ccc(/C=N/NC(=O)Cc3nnc(N)s3)cc2)c1	0.371
CC(C)CNC(=O)c1ccccc1NC(=O)/C=C/c1cccc([N+](=O)[O-])c1	0.151
O=S(=O)(NCC(c1cccnc1)N1CCN(c2ccccc2F)CC1)c1cccs1 (stereo unspecified)	-0.0675
Cc1ccc(Cc2cnc(NC(=O)CN3CCOCC3)s2)cc1Cl	-0.317
O=C1C2C(C(=O)N1/N=C/c1ccco1)C1C=CC2C12CC2 (stereo unspecified)	-0.113
Cc1cc(=O)oc2cc(NC(=O)CCC(=O)O)ccc12	-0.108
COc1cc2cc(C(c3nnnn3C3CCCC3)N3CCCCCC3)c(=O)[nH]c2cc1OC (stereo unspecified)	-0.601

SMILES	z-score
CCOC(=O)C1CCCN(c2c(NCCN3CCCCC3C)c(=O)c2=O)C1 (stereo unspecified)	0.424
O=C(/C=C/c1ccc(F)cc1)NCCc1ccc2c(c1)OCCO2	-0.0556
Cc1cc(C)cc(NC(=O)CN2CCCN(S(=O)(=O)c3ccc(Br)s3)CC2)c1	0.0384
O=C(CSc1ncccn1)NCc1ccccc1Cl	0.524
O=C(CSc1nc2cc3ccccc3cc2[nH]1)Nc1ccc(F)cc1	-0.112
Cc1ccc(SCc2cc(=O)n3[nH]cnc3n2)cc1	-0.616
CSc1nc(NC(C)C)nc(N2CCOCC2)n1	0.645
CCn1c(CSc2nc3ccccc3s2)n[nH]c1=S	0.155
Cc1ccc(OCC(=O)Nc2cccc3c2CCCC3)cc1C	-0.385
COc1ccc(C(CNC(=O)C2CC(=O)N(Cc3ccc(C)cc3)C2)N(C)C)cc1 (stereo unspecified)	-0.529
CCOC(=O)N1CCC(N2C(=O)c3ccccc3C2Nc2ccccc2C)CC1 (stereo unspecified)	2.74
Cc1ccc(/C=C(\C#N)c2nc3ccccc3[nH]2)s1	-0.0719
O=C(Nc1ccc(N2CCN(c3ccc(O)cc3)CC2)cc1)Oc1ccccc1	0.0783
O=C(CSc1nnc(-c2ccccc2F)n1C1CC1)NC(=O)c1cccc([N+](=O)[O-])c1	-0.757
Cn1c(CO)nc2cc(N)ccc21	0.285
